Reference: PubChem BioAssay AID1347120 (National Center for Advancing Translational Sciences (NCATS), 2019)
Among all 390,000 compounds or so, about 930 (0.24%) were called active. This list was built around the results that the source calls inconclusive (neither active nor inactive); the mix of calls is not that of the screen. Calls follow the shape of the dose curve; as a rule, active = well fitted activation curve with a large enough effect; inconclusive = small, poorly fitted or top-dose-only effect; inactive = no such curve, though single readings can be large or run the other way. Where the call is inconclusive, the potency comes from a doubtful curve fit.
Potency is read from the fitted curve at half-maximal effect; tags tell the direction and shape of the fitted curve.

Test: qHTS for Suppressors of FUS Proteinopathy: Primary screen using FUS-linked yeast assay; also: nearly all actives have a fitted effect of over 55% in size;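 as to growth rescue (activation): plate controls were DMSO vehicle for no effect and reference control for full effect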
Conditions: S. cerevisiae FUS-expressing, OD600, 24 h; Potency: growth rescue; growth rescue (activation): at 76.6 µM (top of the series)
Outline: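 Restored growth of FUS-toxic S. cerevisiae, read as 600 nm absorbance after 24 h at 30C in galactose medium (starting OD 0.005). Controls CP55940 and DMSO.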
For `Cc1ccc(NC(=O)CC2C(=O)OCC3CCCCN32)cc1Cl` (configuration not stated), the Potency was “inactive”.
In the case of `Cc1cccc(C2c3[nH]c4ccccc4c3CCN2C(=O)c2nn(C)c(=O)c3ccccc23)n1` (configuration not stated), the Potency is reported as inconclusive: 12.6 µM [activator, partial curve].
For `O=C(C[n+]1cccc(Br)c1)c1ccc(-c2ccccc2)cc1`, the Potency was “inactive”.
For `CO[C@@H]1CN(C)C(=O)c2cc(NC(=O)Nc3cc(F)ccc3F)ccc2OC[C@H](C)N(C(=O)c2cnccn2)C[C@@H]1C`, the Potency was inconclusive: 17.8 µM [activator, partial curve, poor fit].
With `COC(=O)[C@@]12C[C@@H](CC(=O)NCC3CCCCC3)C(=O)N(CCc3ccc(OC)c(OC)c3)C1=CCC(C)(C)C2` the Potency was inconclusive: 15.8 µM [activator, partial curve].
For `COc1ccc(Cn2ccnc2SCC(=O)Nc2ccc3c(c2)OCCO3)cc1`, the Potency was “inactive”.
For `COc1cc(CCN(C(=O)c2cc3ccccc3[nH]2)C(c2ccccn2)c2nc3ccccc3[nH]2)cc(OC)c1` (configuration not stated), the Potency was inconclusive: 10 µM [activator, partial curve, poor fit].
In the case of `O=C(Nc1cccc(S(=O)(=O)N2CCOCC2)c1)c1ccc2c(=O)n3c(nc2c1)CCCCC3`, the Potency is reported as “inactive”.
With `COc1cccc(/C=C2/Sc3ccc(C(=O)NCCN4CCCCCC4)cc3NC2=O)c1` the Potency was inconclusive: 44.7 µM [activator, single point].
With `CC(C)c1ccc(C2C(C(=O)c3ccco3)=C(O)C(=O)N2CC2CCCO2)cc1` (configuration not stated) the Potency was inconclusive: 50.1 µM [activator, partial curve, poor fit].
In the case of `COc1cccc(/C=N/Nc2ncnc3scc(-c4ccccc4)c23)c1OC`, the growth rescue (activation) is reported as inconclusive: 41.5% [activator].
For `COc1ccc(NC(=O)CC2Oc3ccc(C)cc3NC2=O)cc1Cl` (configuration not stated), the Potency was “inactive”.
In the case of `CCOc1ccc(C2C(=O)N(C3CCCCCC3)CC(=O)N2Cc2ccc(C)cc2)cc1OC` (configuration not stated), the Potency is reported as inconclusive: 20 µM [activator, partial curve, poor fit].
In the case of `Cc1ccc(CNC(=O)c2ccc(Cl)c(S(N)(=O)=O)c2)n1C`, the Potency is reported as inconclusive: 28.2 µM [activator, single point].
With `O=C(Nc1nc2ccccc2s1)C1CCCN1S(=O)(=O)c1ccc(Cl)cc1` (configuration not stated) the Potency was inconclusive: 31.6 µM [activator, single point].
For `COc1cccc(/C=C2\CCC(C3CCCC3)C2=O)c1OC` (configuration not stated), the Potency was active: 7.94 µM.
In the case of `C[C@@]12C(=O)N(c3ccccc3)C(=O)N1[C@@H]1c3ccccc3OC[C@@H]1[C@H]2c1ccccc1`, the Potency is reported as inconclusive: 28.2 µM [activator, partial curve].
